# Test results from publication PMC4336329 (PLoS ONE, 2015).
# Screen size: about 310,000 compounds; about 14,000 (4.5%) showed an effect of 50% or more. Effects have a minus sign here. The list shows a part of the results.
# Molecular target: human ether-à-go-go-related gene (hERG) potassium channel (human, UniProt Q12809)
# Assay: primary screen, population patch clamp on CHO cells stably expressing hERG
# 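Also: peak tail current of the secondary pulse compared with the same well before compound.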
# human ether-à-go-go-related gene (hERG) potassium channel, sequence (Q12809 whole entry, looked up): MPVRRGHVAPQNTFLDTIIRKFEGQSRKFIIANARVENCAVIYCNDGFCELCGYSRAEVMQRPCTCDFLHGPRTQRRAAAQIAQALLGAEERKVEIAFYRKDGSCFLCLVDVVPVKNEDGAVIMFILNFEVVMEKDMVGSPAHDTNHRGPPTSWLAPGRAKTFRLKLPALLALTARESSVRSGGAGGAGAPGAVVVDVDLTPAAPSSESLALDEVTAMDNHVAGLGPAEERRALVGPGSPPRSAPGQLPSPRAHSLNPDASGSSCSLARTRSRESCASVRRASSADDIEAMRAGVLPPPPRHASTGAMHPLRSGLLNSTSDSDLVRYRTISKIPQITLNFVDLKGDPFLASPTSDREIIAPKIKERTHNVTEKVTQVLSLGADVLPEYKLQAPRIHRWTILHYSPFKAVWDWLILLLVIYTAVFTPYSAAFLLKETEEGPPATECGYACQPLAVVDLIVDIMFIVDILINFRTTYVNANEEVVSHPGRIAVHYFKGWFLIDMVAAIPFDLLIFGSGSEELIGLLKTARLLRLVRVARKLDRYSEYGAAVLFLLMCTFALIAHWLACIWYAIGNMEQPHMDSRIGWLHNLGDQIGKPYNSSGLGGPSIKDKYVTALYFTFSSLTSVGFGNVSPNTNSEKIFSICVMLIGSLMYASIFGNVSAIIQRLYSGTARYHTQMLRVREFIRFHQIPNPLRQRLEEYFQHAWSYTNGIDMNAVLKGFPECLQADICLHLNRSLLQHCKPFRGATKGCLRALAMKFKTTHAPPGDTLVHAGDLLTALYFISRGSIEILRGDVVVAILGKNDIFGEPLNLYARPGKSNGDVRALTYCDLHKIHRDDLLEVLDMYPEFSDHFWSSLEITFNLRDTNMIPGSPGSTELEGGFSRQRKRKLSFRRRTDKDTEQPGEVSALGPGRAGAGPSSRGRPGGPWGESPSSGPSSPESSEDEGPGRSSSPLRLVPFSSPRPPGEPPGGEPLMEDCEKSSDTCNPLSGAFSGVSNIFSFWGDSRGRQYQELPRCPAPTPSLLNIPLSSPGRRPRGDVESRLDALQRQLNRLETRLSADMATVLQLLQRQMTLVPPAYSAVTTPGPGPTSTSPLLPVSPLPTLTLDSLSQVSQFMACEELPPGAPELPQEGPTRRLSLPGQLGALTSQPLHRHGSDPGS
row,Compound,"hERG current change (%, negative = inhibition) at 10uM [%]"
1,CCOc1ccc(NC(=O)CSc2nccn2Cc2ccco2)cc1,-19.5
2,Cc1noc(C)c1S(=O)(=O)N1CCCC(C(=O)N2CCN(C3CCCCC3)CC2)C1 (stereo not drawn),-23.7
3,CC(=O)OC1(C(F)(F)F)Oc2ccccc2NC1=O (stereo not drawn),0.864
4,CCCCC[C@H]1CN(CCCC)C(=O)[C@@H]1CC(=O)NCc1ccccc1,-73.5
5,S=C(Nc1ccccc1)N1CCn2c(nc3ccccc32)C1,-13.1
6,CCOC(=O)N1CCN(C(=O)CSCc2ccccc2Cl)CC1,-1.25
7,Cl.Nc1ccc2nc[nH]c2c1,35.2
8,CCN(CC)CCNC(=O)c1cc2c(=O)n(C)c3ccccc3c2n1C,-1.17
9,O=C(CSc1nc(-c2ccc(F)cc2)cs1)N1CCOCC1,-25.4
10,CCOC(=O)c1cn(C2CC2)c2c(F)c(F)c(F)cc2c1=O,6.74
11,COc1cc(CNn2c(C)n[nH]c2=S)cc(Cl)c1OCc1ccccc1,-18.4
12,C=CCc1c(C)nc(SCc2nc3ccccc3c(=O)[nH]2)[nH]c1=O,17
13,COc1cccc(OCc2ccc(C(=O)NCC3CCCO3)cc2)c1 (stereo not drawn),-7.03
14,CCC(C)Nc1c2c(nc3c(-c4ccccc4)c(C)nn13)CCC2 (stereo not drawn),-17.7
15,c1ccc(-c2noc(CN3CCCC(OCc4ccccn4)C3)n2)cc1 (stereo not drawn),-12.1
16,Cc1ccc(-c2nnn(CC(=O)NCc3ccccc3)n2)c(-n2cnnn2)c1,-1.11
17,COc1ccc(-n2nc(C(=O)NCC(=O)NCCc3ccc(OC)c(OC)c3)c3ccccc3c2=O)cc1,6.36
18,CCC(=O)N1CCCc2cc(S(=O)(=O)NCc3cccs3)ccc21,-6.38
19,O=C(Nc1ccccc1)O/N=C1\CCCCC1c1ccc([N+](=O)[O-])cc1[N+](=O)[O-] (stereo not drawn),-20

row,Compound,"hERG current change (%, negative = inhibition) at 10uM [%]"
1,C=CCN(C(=O)c1ccc(Cl)cc1)c1ccccc1C(=O)NCC(=O)O,21.1
2,O=C(NNC(=O)C1CCC1)c1ccc(Br)cc1,-1.26
3,CNC(=O)c1[nH]nc2c1CCc1ccccc1-2,4.63
4,Cc1ccc2nc(SCC(=O)NCc3ccc(F)cc3)nc(=O)n2c1,-21.7
5,CCN(CC)C(=O)Cn1nc(-c2ccccc2O)nc1SCC(=O)Nc1ccc(OC)cc1,-26.1
6,CCOC(=O)c1cnc(-c2cccc(OC)c2)[nH]c1=O,-8.93
7,Cl.OCCN(CCO)CC(O)COc1ccc(C23CC4CC(CC(C4)C2)C3)cc1 (stereo not drawn),-13.2
8,Cc1ccc(CNC(=O)[C@H](C)NC(=O)C2CCN(C(=O)[C@@H](N)CC(C)C)CC2)cc1,3.65
9,COc1cccc(-c2nc(CS(=O)(=O)CC(=O)NCCCN3CCc4ccccc4C3)c(C)o2)c1,-71.6
10,N#Cc1ccc(S(=O)(=O)N2CCN(Cc3cccs3)CC2)cc1,-61.2
11,CC(C)(C)OC(=O)N1CCN(C(=O)c2nc[nH]c2C(=O)N2CCN(C(=O)OC(C)(C)C)CC2)CC1,16
12,O=C(CSc1ncnc2ccccc12)NCCCO,0.643
13,O=C(NC(Cc1ccc(O)cc1)C(=O)O)c1ccc2c(c1)OCO2 (stereo not drawn),-13.6
14,CCOC(=O)CNc1c(-c2ccccc2)nc2ccc(Cl)cn12,-64.4
15,Cc1nc(C)c(C(=O)OCC(=O)N2CCN(c3ccccc3)CC2)s1,-7.09
16,CCCCN(C)C(=O)c1cn(CC)c2nc(C)ccc2c1=O,-3.49
17,Cc1nnc(N2C(=O)C(=O)/C(=C(/O)c3ccc4c(c3)CC(C)O4)C2c2ccccc2F)s1 (stereo not drawn),17.7
18,CCN1C(=O)c2ccccc2S(=O)(=O)c2ccc(C(=O)NCC(OC)OC)cc21,6.16
19,COc1c2ccoc2nc2c(OC)c(OCC(OC(C)=O)C(C)(C)O)ccc12 (stereo not drawn),17.9

row,Compound,"hERG current change (%, negative = inhibition) at 10uM [%]"
1,N#CN=C1SCCS1,11.6
2,O=C(CN1C(=O)CCC1=O)Nc1ccc(S(=O)(=O)N2CCOCC2)cc1,4.4
3,Nc1cc(C(F)(F)F)ccc1-n1cccc1,16.3
4,CC1(C)CC(=O)C=C(NC2CCCC(O)C2)C1 (stereo not drawn),15.2
5,[N-]=[N+]=CC(=O)C(c1ccccc1)(c1ccccc1)c1ccccc1,12.1
6,O=C(NC1CCCCCCC1)c1cc(-c2ccccn2)nc2ccccc12,2.16
7,Cc1ccc(OCC(=O)NC(=S)Nc2ccc(S(=O)(=O)Nc3cc(C)on3)cc2)c(Br)c1,4.63
8,CC(=O)Nc1ccc(S(=O)(=O)N2CCN(c3ccc([N+](=O)[O-])c(NCCN4CCOCC4)c3)CC2)cc1,-20.1
9,O=C(Cc1ccccc1)Nc1nccs1,-3.43
10,Cc1ccc(Nc2cc(=O)oc3ccccc23)c(C)c1,-3.54
11,CCOc1ccc(NC(=O)CC2C(=O)N(c3ccc(OC)cc3)C(=O)N2Cc2ccc(OC)cc2)cc1 (stereo not drawn),-8.72
12,CCOc1ccc(Oc2ccc(Cl)cc2NC(=O)C2=COCCO2)cc1,-13.1
13,N#Cc1ccccc1OCC(=O)N(Cc1nnc(-c2ccccc2Cl)o1)C1CC1,-48.7
14,Cc1cc(S(=O)(=O)NC2CCCC2)ccc1F,-4.33
15,CCCCOCCCNC(=O)N[C@H](C(=O)OC)C(C)CC (stereo partly drawn),0.929
16,COC(=O)C(Cc1ccccc1)NC(=O)CCC(=O)NC(C)CCc1ccccc1 (stereo not drawn),-3.62
17,Cc1cc(C)c2cc(CN(Cc3ccco3)C(=O)NCc3ccccc3)c(=O)[nH]c2c1,-12.4
18,CC(=O)Nc1ccc(NC(=O)c2ccc(N(Cc3ccccc3C)S(C)(=O)=O)cc2)cc1,-7.68
19,CC(C(=O)Nc1sc2c(c1C(=O)NCc1ccco1)CCCC2)N1C(=O)c2ccccc2C1=O (stereo not drawn),9.84
